Experimental data published in PubChem BioAssay AID1458 (National Center for Advancing Translational Sciences (NCATS), 2008).
In all, about 210,000 compounds went through this assay and about 5,900 (2.8%) were called active. The inconclusive results got no clear call from the source; some entries with a clear call stand among them for comparison. Calls follow the shape of the dose curve; as a rule, active = well fitted activation curve with a large enough effect; inconclusive = small, poorly fitted or top-dose-only effect; inactive = no such curve, though single readings can be large or run the other way. Potencies beside an inconclusive call are fits to weak or partial responses and may not hold up.

Assay: qHTS Assay for Enhancers of SMN2 Splice Variant Expression; also: nearly all actives have a fitted effect of over 55% in size
Settings: HEK293 SMN2-luciferase splicing reporter, luminescence, 30-36 h; series mostly up to 46.1 µM
Summary of the method: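 HEK293 cells carry an SMN2 minigene-luciferase reporter in which exon 7 inclusion puts luciferase in frame. Cells were seeded at 2000 cells/well, attached for 10-12 hours, then exposed to compounds for 30-36 hours at 37C before ONE-Glo luminescence.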
Potency is read from the fitted curve at half-maximal effect; tags tell the direction and shape of the fitted curve.

SMILES | Potency
CN(C)c1ccc(-c2nnn(CC(=O)NCc3ccc4c(c3)OCO4)n2)cc1 | inconclusive: 12.6 µM [activator, single point]
COc1cccc(C(=O)N=c2sc3c(C)ccc(OC)c3n2C)c1 | active: 2.82 µM
CCOc1ccc(Nc2oc(-c3ccc(Cl)cc3)nc2C#N)cc1 | inconclusive: 35.5 µM [activator, single point]
c1ccc(CCNc2nc(-c3cccnc3)cs2)cc1 | inconclusive: 0.631 µM [activator, single point]
CCn1c(SCc2ccccc2Cl)nc2ccccc21 | inconclusive: 22.4 µM [activator, single point]
N=C1N(/N=C/c2ccccc2)C(=Nc2ccccc2)C(=S)N1c1ccccc1 | inconclusive: 35.5 µM [activator, single point]
CN(C)CCOc1ccccc1-c1ccccc1 | inconclusive: 4.47 µM [activator, partial curve]
CCOc1ccccc1N(CC(=O)O)S(=O)(=O)c1ccccc1 | inconclusive: 0.0035 µM [activator, full curve, poor fit]
CC1(C(=O)OCC(=O)c2c[nH]c3ccccc23)CC1(Cl)Cl (stereo not drawn) | inconclusive: 31.6 µM [activator, single point]
O=C(NC1CC1)c1cccc(Nc2ccc(-c3ccc4c(c3)OCCO4)nn2)c1 | inconclusive: 22.4 µM [activator, single point]
S=C(Nc1cccc2ccccc12)NC1CCCCC1 | inconclusive: 12.6 µM [activator, single point]
Cn1c(SCc2ccccc2)nnc1-c1ccco1 | inconclusive: 25.1 µM [activator, partial curve, poor fit]
COc1ccc(/C=N/Nc2ncnc3sc(C)c(C)c23)cc1 | inactive
CSc1cccc(NC(=S)N2CCCN(Cc3ccc(F)cc3)C2)c1 | inactive
Cc1cc2ncc(C(=O)Nc3ccsc3C(=O)O)c(C)n2n1 | inactive
CC(=O)c1ccc(NC(=O)CCc2c(C)nc3c(c(C)nn3-c3ccc(C)cc3)c2C)cc1 | inconclusive: 22.4 µM [activator, partial curve]
Cc1nc2ccc(NC(=O)N3CCCCC3)cc2nc1C | inactive
CCOC(=O)c1cccc(NC(=O)/C=C/c2ccc3c(c2)OCO3)c1 | inconclusive: 12.6 µM [activator, partial curve, poor fit]
Cc1cccc(Nc2n[nH]c(C)c2[N+](=O)[O-])c1 | inconclusive: 0.891 µM [activator, partial curve, poor fit]
Cc1scc(C(=O)N/N=C/c2ccc(Cl)s2)c1C | active: 17.8 µM
CCOc1ccc(-c2nnc(SCc3nc4ccccc4[nH]3)n2N)cc1 | inconclusive: 7.08 µM [activator, full curve, poor fit]
CSc1cc(-c2ccc(Cl)cc2)[nH]c(=O)c1C#N | inconclusive: 22.4 µM [activator, single point]
O=C(NNC(=O)c1ccccc1Br)c1cccc(Cl)c1 | inconclusive: 15.8 µM [activator, single point]
CCC(=O)Nc1ccc(C(=O)CSc2nnc(-c3cccnc3)o2)cc1 | inconclusive: 28.2 µM [activator, partial curve, poor fit]

SMILES | Potency
Cc1[nH]c2ccccc2c1C(=O)COC(=O)c1ccc2c(=O)n3c(nc2c1)CCC3 | inconclusive: 35.5 µM [activator, single point]
Cn1c(CSCc2ccccc2)n[nH]c1=S | inactive
O=C(Nc1ccncc1)c1sc2ccccc2c1Cl | inconclusive: 3.16 µM [activator, single point]
O=C(CCN1C(=O)c2cccc3cccc(c23)C1=O)Nc1ccccc1 | inconclusive: 3.55 µM [activator, single point]
Cc1cc(C)[n+](C)n1CC(O)Cn1c2ccccc2c2ccccc21 (stereo not drawn) | inactive
CC(C)c1ccc(NC(=O)NC2CCCCC2)cc1 | active: 11.2 µM
Fc1ccccc1Cc1cn2cc(-c3ccc(Cl)cc3)nc2s1 | inconclusive: 3.98 µM [activator, full curve]
O=C(Cc1ccccc1)NC(=S)Nc1cc(C(F)(F)F)ccc1Cl | inconclusive: 1.58 µM [activator, partial curve, poor fit]
O=C(c1ccc(-c2cccc(Cl)c2Cl)o1)N1CCOCC1 | active: 11.2 µM
Cc1ccc(-c2csc3nc4c5ccccc5c(NCCCN(C)C)nn4c(=O)c23)cc1 | inactive
O=C(NC1CC2CCC(C1)N2Cc1nnnn1Cc1ccco1)NC12CC3CC(CC(C3)C1)C2 (stereo not drawn) | inconclusive: 0.0224 µM [activator, full curve]
C/C(=N\OC(=O)c1ccc(F)cc1)c1sc(-c2ccccc2)nc1C | active: 20 µM
O=C(Nc1ccc([N+](=O)[O-])cc1)Nc1ccc2c(c1)OCCO2 | active: 6.31 µM
CNc1ccccc1C(C)(C)c1cc(-c2cc(C)cc(C)c2)no1 | inconclusive: 3.98 µM [activator, partial curve]
CC(=O)n1cc(/C=N/NC(N)=S)c2ccccc21 | inconclusive: 4.47 µM [activator, partial curve]
c1ccc(C2=NNC(=NC3CC3)SC2)cc1 | active: 2.51 µM
COc1ccc(C2(CNC(=O)c3ccc(Br)o3)CCOCC2)cc1 | inconclusive: 5.62 µM [activator, partial curve]
COc1cc(C(=O)NCc2ccc3[nH]c(C)cc3c2)cc(OC)c1OC | inconclusive: 8.91 µM [activator, partial curve]
Cc1ccc(NC(=O)Cc2ccc(F)cc2)cc1 | inconclusive: 10 µM [activator, partial curve]
Cc1ccccc1-c1nc2cc(N)ccc2o1 | active: 6.31 µM
Clc1ccc2nc(N3CCCCC3)sc2c1 | active: 11.2 µM
Cc1ccc2nsnc2c1S(=O)(=O)N(Cc1ccco1)Cc1cc2cccc(C)c2[nH]c1=O | inactive
Cc1cnc(NC(=O)CCNC(=O)c2ccccc2Cl)s1 | inactive
CC(C)c1onc(C(=O)Nc2cccc(Cl)c2)c1[N+](=O)[O-] | inactive
